# From the supplement of paper PMC3334620
# Over roughly 33,000 sequences, “E-score (-0.5 to 0.5)” has its median near -0.035; the highest 2% begin near 0.35. Some of the results follow.
# Molecular target: T1, Pdr3 (UniProt P33200)
# T1 sequence: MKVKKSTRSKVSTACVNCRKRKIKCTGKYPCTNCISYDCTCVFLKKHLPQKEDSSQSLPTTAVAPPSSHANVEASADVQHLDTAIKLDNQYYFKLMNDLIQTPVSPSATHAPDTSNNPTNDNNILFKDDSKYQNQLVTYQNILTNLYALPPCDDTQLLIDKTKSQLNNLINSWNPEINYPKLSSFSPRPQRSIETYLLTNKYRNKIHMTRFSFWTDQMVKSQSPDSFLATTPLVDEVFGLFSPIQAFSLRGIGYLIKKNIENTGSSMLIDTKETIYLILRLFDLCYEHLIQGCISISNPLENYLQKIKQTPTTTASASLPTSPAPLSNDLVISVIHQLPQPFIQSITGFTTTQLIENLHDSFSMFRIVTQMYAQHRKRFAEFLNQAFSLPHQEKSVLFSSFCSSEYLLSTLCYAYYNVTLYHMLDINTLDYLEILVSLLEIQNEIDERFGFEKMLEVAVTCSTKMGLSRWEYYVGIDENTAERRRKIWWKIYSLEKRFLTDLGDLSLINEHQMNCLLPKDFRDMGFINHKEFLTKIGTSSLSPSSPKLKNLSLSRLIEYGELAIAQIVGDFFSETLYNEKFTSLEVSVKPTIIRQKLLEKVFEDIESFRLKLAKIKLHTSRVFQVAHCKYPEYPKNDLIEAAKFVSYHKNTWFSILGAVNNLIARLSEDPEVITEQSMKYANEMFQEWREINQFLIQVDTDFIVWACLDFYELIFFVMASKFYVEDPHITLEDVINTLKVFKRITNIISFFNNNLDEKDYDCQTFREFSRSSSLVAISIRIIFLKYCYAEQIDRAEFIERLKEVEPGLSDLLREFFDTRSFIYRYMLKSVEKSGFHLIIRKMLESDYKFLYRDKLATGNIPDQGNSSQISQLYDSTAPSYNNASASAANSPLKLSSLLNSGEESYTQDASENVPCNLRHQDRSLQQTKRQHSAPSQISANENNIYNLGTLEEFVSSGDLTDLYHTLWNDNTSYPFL
# Assay: PBM E-score (8-mer binding enrichment) (E-score (-0.5 to 0.5)); higher = stronger / more preferred TF binding; most listed sequences are background and not binding sites
# Settings: protein concentration: 200 nM; construct: GST-full length
# How it was run: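 GST-tagged yeast TFs (full-length or DNA-binding domain) were made by PURExpress in vitro transcription/translation and applied at about 100-200 nM to universal all-10-mer Agilent arrays. The arrays were made double-stranded by primer extension, on fresh or once-stripped slides. Bound protein was detected with fluorescent anti-GST, and scans were normalised with masliner. Each ungapped eight-base word, pooled with its reverse complement, received an E-score (modified Wilcoxon-Mann-Whitney statistic) from the Universal PBM Analysis Suite.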
row,Sequence,PBM E-score
1,TATCACGA,-0.126
2,GTAAGAAC,-0.0573
3,CTCGTAAC,-0.108
4,AATTTCAA,-0.172
5,ACAAACCT,-0.121
6,AGAGATAA,-0.11
7,CACACACG,0.0957
8,ATCGGCTG,0.175
9,CGTGGACC,0.14
10,AGTTTTTC,0.0835
11,AACGCAGA,0.0362
12,CGTTGCCA,-0.0147
13,GGGCTGAA,0.0102
14,ATCGATTC,0.109
15,GCGCAATA,0.00596
16,ATCAGGGG,-0.0929
17,GGCACATA,0.0447
18,AGAAGGGC,-0.0354
19,GTGTCCCA,0.0876
20,GGAGGCAA,-0.113
21,CAGCGAAC,-0.0505
22,AGGTCGAG,-0.201
23,GGCTCTAC,-0.0317
24,TAAGACAA,-0.0914
25,CATAATTA,-0.0778

row,Sequence,PBM E-score
1,CTCCGAGC,0.296
2,AAGATGTA,-0.207
3,ACGGGTTC,0.202
4,ACCCTAAT,-0.238
5,GACGGTGA,-0.0501
6,CGTAGAGC,-0.0444
7,CCATTCGA,-0.133
8,GCAACCAA,0.141
9,CTTCCCAC,-0.0487
10,GGAACACC,0.224
11,AGAACTAA,0.016
12,ATCGACGG,0.229
13,GACCCTCC,0.0699
14,TCAACGCA,-0.0152
15,ATGATTTA,-0.0349
16,ACACCGAC,0.0164
17,GGCAAATA,0.0766
18,CATCGGGA,0.263
19,CAGGAGGG,-0.223
20,GTCCCATA,-0.137
21,CGGACACC,0.295
22,AGCGGAGC,0.216
23,GTCCGACA,0.243
24,GGGCGTTA,-0.08
25,TAGTCTGA,-0.242

row,Sequence,PBM E-score
1,CGGATCAA,0.356
2,CCGCCGCA,0.202
3,CTCTCATC,-0.13
4,CCCGGATA,0.34
5,CGTCCACA,0.0377
6,ATTAGCAC,-0.0101
7,GGACTGCC,0.0829
8,GGACTATA,0.0155
9,CGAATTGC,0.102
10,AGGTACCG,0.146
11,TCGCGGAA,0.404
12,GAATCTGC,0.0825
13,CTACCCCC,-0.118
14,GAGCCGCA,0.044
15,CCGACCGA,0.251
16,CCGACTCC,0.229
17,GGTAATCA,0.0535
18,TAAAAGGA,-0.0678
19,CTTGCGTC,-0.0859
20,GACGTGGA,-0.0258
21,AAGTAGCC,-0.0354
22,AGAGAGAC,-0.267
23,GCGAATTA,0.152
24,ACAATTGG,-0.182
25,GAGCTTGC,-0.199

row,Sequence,PBM E-score
1,AACATTTC,-0.0476
2,ACAGCGCA,-0.041
3,ATCCGGCG,0.323
4,ATACGGAT,0.241
5,AAATCCAT,0.17
6,AGCTACAG,-0.165
7,ATGTGAAT,0.0094
8,AGTTTACA,-0.151
9,AAAGAAGC,-0.115
10,CCTCCTTC,-0.0977
11,CCAAGCGC,0.0275
12,GCTATCCA,0.00502
13,GCGGCAAC,0.145
14,ACATGCGA,-0.297
15,CGTTAGAG,-0.0371
16,ATGTGGTA,-0.0392
17,GCGAGAGA,-0.148
18,ACTGATCT,0.0846
19,GAGGACAC,0.0582
20,ACCTCCAC,0.0419
21,CCCTTTTA,-0.154
22,GCCATACC,-0.0913
23,CGGACTAG,0.139
24,TCGTCAGA,-0.134
25,AGGATAGG,-0.243

row,Sequence,PBM E-score
1,GAGTTATA,-0.129
2,GGCGAGGA,-0.04
3,CCCTTGCC,-0.103
4,GATTTTGC,-0.123
5,GCGACACC,-0.0851
6,ACCCCTTC,-0.0871
7,CATCGCCG,0.184
8,CCACCGGC,0.204
9,CGTCTTTA,0.0715
10,ATCGGGTC,0.222
11,CAGCACTC,-0.127
12,ATTCTTAA,-0.081
13,CCGGGAAC,0.362
14,CCTAGTCC,-0.177
15,TCTGTACA,0.0628
16,AGATCTGA,-0.0628
17,CGATTTTC,0.0993
18,ACGCGTCG,0.166
19,CGCGTGTA,-0.0492
20,TCCTTCAA,-0.0748
21,ACGATGTG,-0.0589
22,TCCATCCA,-0.305
23,AGCTACGA,-0.272
24,CATTCTCC,-0.105
25,AAGGCGGG,-0.104

row,Sequence,PBM E-score
1,CTCAGCCC,-0.241
2,GTCGCTCA,-0.112
3,GATCAGGA,0.0747
4,GATAGATA,0.0126
5,AAGATGGT,0.00413
6,ACAGGACT,-0.219
7,CGAATTGA,0.063
8,GATTGCAC,-0.0178
9,CTCCACCC,-0.165
10,TGTGAAAA,-0.142
11,ACATATAG,-0.0381
12,AAGGAACT,0.0764
13,AGTATTGA,-0.122
14,CCTCTGCG,-0.158
15,AAACGACA,-0.0828
16,ACGTAAAG,-0.232
17,CCTGTAGC,-0.282
18,CTCTGGGC,-0.109
19,GCCTTAAC,-0.241
20,CTTGTGCA,0.0626
21,AGAGCGTA,-0.118
22,TACGATGA,-0.172
23,ACCCTACC,-0.188
24,AATGACGC,-0.175
25,GACGCGCA,0.0698

row,Sequence,PBM E-score
1,AGTGAGCA,-0.218
2,ATCGAGAG,-0.0159
3,CGACGCGC,0.224
4,TATCATAA,0.0184
5,CGAACCGC,0.188
6,AGGGGTAA,-0.213
7,AACACCGG,0.265
8,CGAGGCGC,0.231
9,AACCGGGG,0.199
10,CACTGTCG,-0.00829
11,GGCCAGCC,-0.0146
12,ACAAGCTC,0.119
13,CGAAGGAC,0.0231
14,ATTTATTA,0.097
15,TTTGAAAA,-0.145
16,AATCAGAA,0.11
17,ATCTCCAT,0.0657
18,AATTTGAG,-0.131
19,GGACTGAC,-0.1
20,ACCCCCCG,0.0732
21,ACTATTTC,0.143
22,GACTAGTA,-0.117
